Source: PubChem BioAssay AID1468 (National Center for Advancing Translational Sciences (NCATS), 2008)
Out of some 280,000 compounds screened, about 1,100 (0.39%) were called active. This list was built around the results that the source calls inconclusive (neither active nor inactive); the mix of calls is not that of the screen. Calls come from the whole dose curve; as a rule, active = well fitted inhibition curve with a large enough effect; inconclusive = small, poorly fitted or top-dose-only effect, or effect the other way; inactive = flat fitted curve, though single readings scatter. Potencies of inconclusive entries are left out as doubtful fits.

Molecular target: Microtubule-associated protein tau (Homo sapiens) (UniProt P10636)
UniProt P10636, sequence (P10636 whole entry, looked up): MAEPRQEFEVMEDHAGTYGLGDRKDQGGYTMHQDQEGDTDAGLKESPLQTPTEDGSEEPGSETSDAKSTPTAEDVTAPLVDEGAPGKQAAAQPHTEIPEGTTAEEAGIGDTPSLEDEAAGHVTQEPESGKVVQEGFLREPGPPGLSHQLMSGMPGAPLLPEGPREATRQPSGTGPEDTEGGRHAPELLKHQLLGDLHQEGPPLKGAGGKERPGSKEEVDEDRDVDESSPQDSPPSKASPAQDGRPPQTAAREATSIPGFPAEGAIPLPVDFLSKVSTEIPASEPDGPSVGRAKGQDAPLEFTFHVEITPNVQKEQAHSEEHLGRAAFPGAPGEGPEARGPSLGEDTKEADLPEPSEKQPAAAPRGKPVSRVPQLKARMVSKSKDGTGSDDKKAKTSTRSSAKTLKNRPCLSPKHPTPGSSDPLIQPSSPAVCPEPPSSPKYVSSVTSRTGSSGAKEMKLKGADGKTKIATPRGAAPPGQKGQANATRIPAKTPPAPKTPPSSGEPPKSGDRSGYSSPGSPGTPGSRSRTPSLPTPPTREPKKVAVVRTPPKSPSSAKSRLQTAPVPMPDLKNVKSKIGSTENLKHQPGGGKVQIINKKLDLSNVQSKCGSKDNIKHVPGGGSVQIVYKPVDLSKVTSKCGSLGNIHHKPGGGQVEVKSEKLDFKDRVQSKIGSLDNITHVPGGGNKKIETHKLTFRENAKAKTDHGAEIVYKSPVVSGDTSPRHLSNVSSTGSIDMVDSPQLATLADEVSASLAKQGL
Experiment: qHTS for Inhibitors of Tau Fibril Formation, Fluorescence Polarization; note: nearly all actives have a fitted effect of over 55% in size
Conditions: K18 P301L tau heparin fibrillization, Alexa594 FP, 6 h; series mostly up to 57.7 µM; activity, negative = inhibition: at the top concentration
Method in brief: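 FP of Alexa 594-tau after heparin (20 uM) induction. Substrate: human K18 P301L, 15 uM unlabeled, 0.24 uM labeled. Buffer 100 mM sodium acetate pH 7. 6 hr, 37 C.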
% is set by controls: 0 for no effect and ±100 for the full control effect; potency is the fitted concentration of half-maximal effect; tags give direction and shape of the fitted curve.

SMILES | activity, negative = inhibition | Potency
CCn1c(N)c(C(=O)NCCOC)sc1=S | inactive: -5.3% | 
C=CCc1ccc(O)c(-c2cc(CC=C)ccc2O)c1 |  | inconclusive [activator, single point]
CCOc1ccc(NC(=O)NCCCN2CCN(c3ccc(OC)cc3)CC2)cc1 |  | inconclusive [activator, full curve, poor fit]
COCCNC(=O)c1ccccc1NC(=O)c1ccc(Cl)c(S(=O)(=O)Nc2ccc(C)cc2C)c1 |  | inconclusive [inhibitor, partial curve, poor fit]
COc1c(Cl)cc(Cl)cc1C(=O)Nc1ccc(NC(=O)c2cccs2)cc1 |  | inconclusive [inhibitor, single point]
COCC(=O)n1nc(NCc2ccc(OC)cc2)nc1NCc1ccc(OC)cc1 | inactive: 9.03% | 
O=[N+]([O-])c1ccccc1S(=O)(=O)N1CCN(Cc2cc3c(cc2O)OCO3)CC1 |  | inconclusive [inhibitor, partial curve, poor fit]
CCCNS(=O)(=O)c1ccc(CCC(=O)N2CCCC2)cc1 |  | inconclusive [inhibitor, partial curve]
Cc1ccc(NC(=O)CCl)c(C)c1 | inactive: 0.24% | 
O=C(NCCc1ccccc1)c1cc(-c2ccccc2)nc2n[nH]c(-c3ccccc3)c12 |  | inconclusive [inhibitor, partial curve]
Cc1ccc(Nc2nc(-c3sc(NC(=O)c4cccc(Cl)c4)nc3C)cs2)cc1 |  | inconclusive [activator, partial curve, poor fit]
COC(=O)[C@@H](N)CS |  | inconclusive [inhibitor, partial curve]
Nc1nc(SCC(=O)Nc2cccnc2Cl)n[nH]1 | inactive: 7.31% | 
N#Cc1c(-c2ccc(Cl)cc2)ccn2nc(C3CCCCC3)nc12 |  | inconclusive [inhibitor, single point]
COc1cc(/C=C(\C#N)c2nc3ccccc3[nH]2)c([N+](=O)[O-])cc1OCc1ccccc1 |  | inconclusive [activator, partial curve]
O=C1CCCCCCC1Sc1ccccc1[N+](=O)[O-] (stereo not given) |  | inconclusive [inhibitor, single point]
COc1ccc(C2C(C(=O)N3CCCCC3)c3ccccc3C(=O)N2C)cc1 (stereo not given) | inactive: -11.7% | 
O=C(C1=C(Nc2ccccc2)c2ccccc2S(=O)(=O)N1)c1ccccc1 |  | inconclusive [inhibitor, single point]
COc1ccc2oc(=O)c(-c3nc4ccccc4o3)cc2c1 | inactive: 0.312% | 
CCCn1c2ccccc2c2cnn(CC(=O)NCCc3cc(OC)ccc3OC)c(=O)c21 | inactive: 1.97% | 
CCOC(=O)c1cccc(NC(=O)NCc2ccc3c(c2)CCN3C(=O)CC)c1 |  | inconclusive [inhibitor, partial curve]
N#CCCN(Cc1cccnc1)C(=S)NC(=O)c1ccco1 | inactive: 0.492% | 
Cc1cc(C)c(/C=N/NC(=O)c2nnn(-c3nonc3N)c2COc2ccc(F)cc2)c(C)c1 |  | inconclusive [inhibitor, partial curve]

SMILES | activity, negative = inhibition | Potency
COc1cccc(-c2nc(CS(=O)(=O)CC(=O)NCCCc3ccccc3)c(C)o2)c1 |  | inconclusive [activator, single point]
Cc1ccc(Cl)cc1NC(=O)Cn1cc(S(=O)(=O)Cc2ccccc2Cl)c2ccccc21 |  | inconclusive [inhibitor, full curve, poor fit]
CC(=O)c1cccc(NC(=O)c2ccc(-c3ccccc3[N+](=O)[O-])o2)c1 | inactive: -5.38% | 
O=C1CCCN1CN(C(=O)c1ccc2c(c1)OCO2)c1ccc(F)cc1 |  | inconclusive [inhibitor, full curve, poor fit]
Cc1ccc(Cn2c(N/N=C/c3ccncc3)nc3c2c(=O)n(C)c(=O)n3C)cc1 | inactive: 3.47% | 
Fc1cccc(NC(=S)N2CCCC2)c1 | inactive: 3.22% | 
Nc1nonc1C(=O)NCCNCc1cc(Br)ccc1OCc1ccccc1F | inactive: -6.79% | 
COc1cccc([C@H]2Nc3ccc(S(=O)(=O)Nc4cc(C)ccc4C)cc3[C@H]3C=CC[C@H]32)c1 | inactive: 4.27% | 
COc1ccc(NC(=O)CSc2nnc(Cc3cccn3C)n2-c2ccc(F)cc2)cc1OC | inactive: 10.1% | 
NC(=O)c1cc2c3ccccc3ccn2c1-c1ccccc1 |  | inconclusive [activator, full curve, poor fit]
CCOC(=O)N1CCN(C(=O)c2ccc3c(=O)n(Cc4ccc(Cl)cc4)c(=S)[nH]c3c2)CC1 |  | inconclusive [inhibitor, single point]
O=C(/C=C/c1ccccc1)NC(=S)Nc1cccnc1 | inactive: -4.65% | 
CCc1ccc(-c2ccc3nnc(SCC(=O)Nc4cccc(C(C)=O)c4)n3n2)cc1 |  | inconclusive [inhibitor, partial curve, poor fit]
CN(C)CCNC=C(C(=O)Nc1ccc(Cl)cc1Cl)C(=O)Nc1ccc(Cl)cc1Cl |  | active: 10 µM
COc1cc(Cl)c(C)cc1NC(=O)NC1COc2ccccc2C1 (stereo not given) |  | inconclusive [inhibitor, partial curve, poor fit]
CCn1cc(C(=O)O)c(=O)c2cc(F)c(N3CCN(S(=O)(=O)c4ccc(NC(=O)OC)cc4)CC3)cc21 |  | inconclusive [inhibitor, single point]
COc1ccc(-c2[nH]ncc2CN2CCCCCCC2)c(OC)c1 | inactive: -4.98% | 
Cc1noc(/C=C/N(C)C)c1S(=O)(=O)N1CCC(C(=O)O)CC1 |  | inconclusive [inhibitor, single point]
N#Cc1c(-c2ccccc2)cc(-c2ccccc2)nc1SCC(=O)Nc1ccc(Cl)cc1 |  | inconclusive [inhibitor, partial curve, poor fit]
COc1ccc(CCNC(=O)Cn2c(-c3cccs3)cc3cc(F)ccc32)cc1OC | inactive: -4.46% | 
Cc1cc(C)c(Nc2cc(S(=O)(=O)O)c(N)c3c2C(=O)c2ccccc2C3=O)c(C)c1 |  | active: 20 µM
CCc1ccccc1NC(=O)c1cc(-c2cccc(O)c2)on1 |  | inconclusive [inhibitor, single point]
